Laboratory results as given in the supplement of paper PMC6089552.
Among all 3,200 compounds or so, about 300 (9.4%) showed activity. The entries are a selection whose mix differs from that of the whole data set.

System: A673/TR/shEF
Experiment: cell viability (LOESS-normalised, relative to median of negative controls) (log2 ratio); higher = more viable cells (less compound effect), active = hit call of the paper (over 3 MAD below the median)
Details: treatment time: 72 h
Outline: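 A673/TR/shEF Ewing sarcoma cells (1,500 per well, 384-well plates) were grown with or without doxycycline to induce EWS-FLI1 shRNA knockdown, starting 24 h before compounds. Library compounds at two or more concentrations, with DMSO controls, were added for three days. Cell viability was read by CellTiter-Glo luminescence on an Envision reader, then LOESS-corrected per plate, divided by the median of negative controls and log2-transformed. Hits were wells at least three median absolute deviations from the median of all screened wells.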

[1] = 0.25 µM, library screen: screen1, EWS-FLI1 expression: high (no doxycycline)
[2] = 0.25 µM, library screen: screen1, EWS-FLI1 expression: low (doxycycline-induced shRNA knockdown)
[3] = 2.5 µM, library screen: screen1, EWS-FLI1 expression: high (no doxycycline)
[4] = 2.5 µM, library screen: screen1, EWS-FLI1 expression: low (doxycycline-induced shRNA knockdown)
[5] = 0.25 µM, library screen: screen2, EWS-FLI1 expression: high (no doxycycline)
[6] = 0.25 µM, library screen: screen2, EWS-FLI1 expression: low (doxycycline-induced shRNA knockdown)
[7] = 2.5 µM, library screen: screen2, EWS-FLI1 expression: high (no doxycycline)
[8] = 2.5 µM, library screen: screen2, EWS-FLI1 expression: low (doxycycline-induced shRNA knockdown)

Measured: cell viability (log2)

Cc1cc(C)nc(NS(=O)(=O)c2ccc(N)cc2)n1
inactive: [1] -0.0475 | [2] 0.107 | [3] 0.101 | [4] 0.0787

CC1(C)O[C@@H]2C[C@H]3[C@@H]4C[C@H](F)C5=CC(=O)C=C[C@]5(C)[C@@]4(F)[C@@H](O)C[C@]3(C)[C@]2(C(=O)CO)O1
inactive: [1] 0.151 | [2] -0.224 | [3] 0.219 | [4] -0.204

CCCCCCCCCCCCCCCC(=O)NCC(COP(=O)([O-])OCC[N+](C)(C)C)OC (centres undefined)
inactive: [5] 0.14 | [6] 0.124 | [7] 0.166 | [8] 0.0176

COc1cc(NS(=O)(=O)c2ccc(N)cc2)ncn1
inactive: [1] 0.124 | [2] -0.0105 | [3] 0.119 | [4] 0.0803

COc1cc(O)c2c(=O)c(OC)c(-c3ccc(OC)c(OC)c3)oc2c1
inactive: [1] 0.149 | [2] 0.0908 | [3] 0.162 | [4] 0.0431

CN([C@@H](Cc1ccc(OS(=O)(=O)c2cccc3cnccc23)cc1)C(=O)N1CCN(c2ccccc2)CC1)S(=O)(=O)c1cccc2cnccc12
active: [3] -0.171 | 25 µM, library screen: screen1, EWS-FLI1 expression: high (no doxycycline) -0.315

O=C(O)C1=CC(=C(c2ccc(O)c(C(=O)O)c2)c2ccc(O)c(C(=O)O)c2)C=CC1=O
inactive: [5] 0.177 | [6] 0.131 | [7] 0.0778 | [8] 0.154

O=c1ccn([C@@H]2O[C@H](COP(=O)(O)OP(=O)(O)O)[C@@H](O)[C@H]2O)c(=O)[nH]1
inactive: [5] 0.14 | [6] 0.0724 | [7] 0.171 | [8] 0.0953

CC(C(O)c1ccc(O)cc1)N1CCC(Cc2ccccc2)CC1 (centres undefined)
inactive: [5] 0.0651 | [6] 0.135 | [7] 0.0255 | [8] 0.077

NC(=O)c1ccccc1
inactive: [5] 0.227 | [6] 0.106 | [7] 0.0514 | [8] 0.136

C[C@H](CS)C(=O)N1CCC[C@H]1C(=O)O
inactive: [1] 0.0472 | [2] -0.0251 | [5] 0.157 | [6] 0.151 | [3] 0.121 | [4] 0.021 | [7] 0.173 | [8] 0.016

CN(Cc1cc(Br)cc(Br)c1N)C1CCCCC1
inactive: [1] 0.0812 | [2] 0.172 | [3] 0.0865 | [4] 0.262

CC1(C)O[C@@H]2C[C@H]3[C@@H]4C[C@H](F)C5=CC(=O)C=C[C@]5(C)[C@H]4[C@@H](O)C[C@]3(C)[C@]2(C(=O)CO)O1
inactive: [1] 0.115 | [2] -0.269 | [3] 0.129 | [4] -0.268
